Measurements from PubChem BioAssay AID624296 (National Center for Advancing Translational Sciences (NCATS), 2012).
In all, about 350,000 compounds went through this assay and about 9,900 (2.8%) were called active. This list was built around the results that the source calls inconclusive (neither active nor inactive); the mix of calls is not that of the screen. The call rests on the fitted dose curve; in most records, active means well fitted activation curve with a large enough effect; inconclusive means small, poorly fitted or top-dose-only effect; inactive means no such curve, though single readings can be large or run the other way. No potency is given beside an inconclusive call; the fits are too rough.

experiment: A quantitative high throughput screen for small molecules that induce DNA re-replication in MCF 10a normal breast cells.; further: nearly all actives have a fitted effect of over 50% in size; conditions: MCF 10A DNA re-replication, Hoechst nuclear intensity, 48 h; series mostly up to 46.1 µM
Potency means the concentration at half of the fitted maximal effect; tags describe the fitted curve by direction and shape.

SMILES | Potency
COC(=O)c1ccc2c(=O)[nH]c(COC(=O)c3[nH]c(C)c(C(C)=O)c3C)nc2c1 | inconclusive [activator, single point]
O=C(O)c1ccc(NN=CC2=C(N3CCOCC3)/C(=C/c3ccccc3)CC2)cc1 | inconclusive [activator, single point]
CCC(=O)N1CCN(c2ccccc2NC(=O)COc2cccc(C)c2C)CC1 | inactive
Cc1onc(-c2ccccc2Cl)c1C(=O)N(C)CC(=O)Nc1ccc(F)c(F)c1F | inconclusive [activator, partial curve, poor fit]
COc1ccc(C)cc1S(=O)(=O)N(C)CC(=O)NCc1ccncc1 | inactive
COc1ccc(C(=O)c2c(C)c3cc(C)ccc3n2CC(O)CN2CCOCC2)cc1 (stereo unspecified) | inconclusive [activator, partial curve, poor fit]
Clc1ccc(N2N=C(c3cccs3)CC2c2ccco2)cc1 (stereo unspecified) | active: 4.61 µM
Cc1cccc(C)c1Nc1nnc(SC/C(O)=C(\C#N)c2nc3ccccc3[nH]2)s1 | inconclusive [activator, single point]
Cc1cc2cc(C(c3nnnn3Cc3ccccc3)N3CCc4ccccc43)c(=O)[nH]c2cc1C (stereo unspecified) | inactive
COc1ccc(NCc2ccc([N+](=O)[O-])s2)cc1 | inconclusive [activator, single point]
CC(=O)c1ccc2c3c(ccc(O)c13)CC2 | inconclusive [activator, full curve, poor fit]
N#Cc1c(N)n(C2CCCCC2)c2nc3ccccc3nc12 | active: 1.03 µM
C=CCC[C@@H](Cc1ccc(F)cc1)C(=O)OC[C@H](Cc1c[nH]c2ccccc12)NC(=O)[C@@H](CC=C)CC(=O)N[C@H](CO)Cc1ccccc1 | inactive
C=CCn1c(SCC(=O)NNC(=O)Nc2cccc(Cl)c2)nnc1-c1ccccc1 | inactive
COc1ccc(-c2cc(C(=O)N(C)Cc3ccc(F)cc3)c3ccccc3n2)cc1OC | inconclusive [activator, single point]
CC1CCCCC1NC(=O)c1cc2ccccc2o1 (stereo unspecified) | inconclusive [activator, partial curve, poor fit]
CN(C)Cc1c(O)ccc2c3c(c(=O)oc12)CCCCC3 | inactive
NS(=O)(=O)c1ccc(CCNC(=O)CSc2ccccc2)cc1 | inconclusive [activator, single point]
Cc1ccccc1-n1ncc2c(SCC(=O)NCc3cccs3)ncnc21 | active: 12.6 µM
O=C1C2CSCN2C(=O)CN1CCCN1CCN(C(c2ccccc2)c2ccccc2)CC1 (stereo unspecified) | inconclusive [activator, single point]
CCCCNC(=O)c1cc(-c2ccc(OC)cc2)on1 | inactive
CN1c2ccsc2/C(=N/NC(=O)c2c(F)cccc2F)CS1(=O)=O | inactive

SMILES | Potency
c1ccc2c(Nc3ccc4c(c3)OCCO4)c3c(nc2c1)CCC3 | inconclusive [activator, single point]
O=C(Nc1cccnc1)c1ccc(Cl)c([N+](=O)[O-])c1 | active: 20.6 µM
O=C(c1ccc(=O)[nH]n1)N1CCN(S(=O)(=O)c2ccc(C(F)(F)F)cc2)CC1 | inactive
COc1cccc2cc(C(=O)N(C)C3CCN(C)CC3)c(=O)oc12 | inconclusive [activator, single point]
Cn1cc(C(=O)C(=O)N2CCCc3ccccc32)c2ccccc21 | inconclusive [activator, single point]
COc1cc(C(=O)NC2CCN(C)CC2)ccc1Nc1ncc2c(n1)N(Cc1ccccc1)CCC(=O)N2C | active: 23.1 µM
CC(C)(C)c1ccc(/C=N/N2CCN(c3ccccn3)CC2)cc1 | inconclusive [activator, partial curve, poor fit]
O=C(c1ccc(Cl)cc1)c1ccc(OCC(O)CN2CCCCC2)cc1 (stereo unspecified) | active: 5.01 µM
O=S(=O)(NCC(c1ccco1)N1CCN(c2ccccc2)CC1)c1ccc(F)cc1 (stereo unspecified) | inconclusive [activator, single point]
Cc1cc(C(=O)Cn2nnc3ccccc3c2=O)c(C)n1Cc1cccs1 | inconclusive [activator, partial curve]
O=C1OC(c2cccs2)=N/C1=C\c1ccc(-c2cccc(Cl)c2)o1 | inconclusive [activator, single point]
O=C(CSc1nnc2scc(-c3ccc(Cl)cc3)n12)NCc1ccco1 | inconclusive [activator, partial curve, poor fit]
O=[N+]([O-])c1ccc(C=Nc2ccc(Cl)cc2Cl)s1 | inconclusive [activator, single point]
CN(C(=O)c1cccc(NC(=O)Cc2ccc(NC(=O)C3CCCN(C(=O)C4CCCC4)C3)cc2)c1)C1CCCCC1 (stereo unspecified) | inconclusive [activator, single point]
O=C(N/N=C/c1ccccc1Br)c1cccc(S(=O)(=O)N2CCOCC2)c1 | inactive
Cc1ccc(NS(=O)(=O)c2ccc(C(=O)NC3CCN(Cc4ccccc4)CC3)cc2)cc1 | inactive
CCc1cc2c(-c3ccccc3)cc(=O)oc2cc1OC(C)C(C)=O (stereo unspecified) | inconclusive [activator, full curve, poor fit]
C[C@@]12C(=O)N(c3ccc(Br)cc3)C(=O)N1[C@@H]1c3ccccc3OC[C@@H]1[C@H]2c1ccccc1 | inconclusive [activator, partial curve, poor fit]
c1ccc(-c2nc3nonc3c3nc4ccccc4n23)cc1 | inconclusive [activator, partial curve, poor fit]
CCn1nnnc1SCC(=O)Nc1nnc(C(C)C)s1 | inconclusive [activator, partial curve, poor fit]
O=C(NC(CO)C(O)c1ccc([N+](=O)[O-])cc1)C(Cl)Cl (stereo unspecified) | inconclusive [activator, single point]
CCCN(CC1CC1)c1nc(N)c2c(N)nc(OC)cc2c1C#N | inconclusive [activator, partial curve]

SMILES | Potency
O=C(COC(=O)Cc1n[nH]c(=O)c2ccccc12)NNC(=O)c1ccc(Cl)cc1 | inconclusive [activator, single point]
Cc1ccc(-c2nc3ncccc3o2)cc1NC(=O)c1cc2ccccc2o1 | inconclusive [activator, single point]
COc1ccc(NC(=S)NC23CN4CN(CN(C4)C2)C3)cc1 | inactive
Cc1ccc(C(=O)Nc2cccc3ccccc23)o1 | inconclusive [activator, full curve]
CC(=O)N1N=C(c2cccc(NS(=O)(=O)c3ccc(C)cc3)c2)CC1c1ccco1 (stereo unspecified) | inconclusive [activator, single point]
O=C(COC(=O)/C=C/c1ccc([N+](=O)[O-])cc1)NC(c1ccccc1)c1ccccc1 | active: 23.1 µM
Cc1nc2c(-c3ccc(F)cc3)c(C)nn2c(C)c1CCC(=O)Nc1ccc(F)cc1F | inconclusive [activator, single point]
COc1cc(=O)n(C)c2c(O)cccc12 | inconclusive [activator, full curve, poor fit]
CCC(=O)N1CCN(c2ccc(Cl)cc2NC(=O)c2ccc(N3CCCC3)c([N+](=O)[O-])c2)CC1 | inactive
O=C(CN1C(=O)S/C(=C\c2cccs2)C1=O)Nc1ccc(C(=O)O)c(O)c1 | inconclusive [activator, partial curve, poor fit]
CCn1nc([N+](=O)[O-])c2c(-c3nc4ccccc4o3)c(N)n(CCCOC)c2c1=O | inconclusive [activator, partial curve, poor fit]
CCOC(=O)c1cc(CC)sc1/N=C/C1=C(O)CC(C)(C)CC1=O | inconclusive [activator, single point]
O=C(Cc1coc2ccc3ccccc3c12)NC1CCCc2ccccc21 (stereo unspecified) | inconclusive [activator, single point]
O=C(c1ccccc1)N1CCCC(c2ccc(Cl)cc2)=N1 | inconclusive [activator, single point]
O=C(Nc1ccc(OCc2ccccc2)cc1)Nc1ccccc1C(=O)NCCCN1CCOCC1 | inconclusive [activator, partial curve, poor fit]
Cc1onc(-c2ccccc2Cl)c1C(=O)N1CCC(Cc2ccccc2)CC1 | inconclusive [activator, single point]
O=C(CN1C(=O)C2C3C=CC(C3)C2C1=O)OCC(=O)c1ccc(Cl)c([N+](=O)[O-])c1 (stereo unspecified) | inconclusive [activator, single point]
CCOC(=O)c1csc(NC(=O)CCSc2ccccc2)n1 | inactive
CCOc1ccccc1OCCCC(=O)ON=C(N)c1ccccc1 | inactive
CCCCNC(=S)N(C)/N=C/c1c(C)[nH]c2ccccc12 | inconclusive [activator, partial curve, poor fit]
ON=C1/C(=N\O)CC2(C/C1=N/O)OCCO2 | inconclusive [activator, single point]
COc1ccccc1N1CCN(C(=O)c2noc(C)c2[N+](=O)[O-])CC1 | inconclusive [activator, partial curve, poor fit]
